Among all 310,000 compounds or so, about 14,000 (4.5%) showed an effect of 50% or more. The effect is printed as a negative number. Some of the results follow.

Here are results for 88 compounds from paper PMC4336329 (PLoS ONE, 2015).
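Further: peak tail current of the secondary pulse compared with the same well before compound.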

The target in the test is human ether-à-go-go-related gene (hERG) potassium channel (human, UniProt Q12809). As to the kind of experiment: primary screen, population patch clamp on CHO cells stably expressing hERG.
Sequence of human ether-à-go-go-related gene (hERG) potassium channel (Q12809 whole entry, looked up): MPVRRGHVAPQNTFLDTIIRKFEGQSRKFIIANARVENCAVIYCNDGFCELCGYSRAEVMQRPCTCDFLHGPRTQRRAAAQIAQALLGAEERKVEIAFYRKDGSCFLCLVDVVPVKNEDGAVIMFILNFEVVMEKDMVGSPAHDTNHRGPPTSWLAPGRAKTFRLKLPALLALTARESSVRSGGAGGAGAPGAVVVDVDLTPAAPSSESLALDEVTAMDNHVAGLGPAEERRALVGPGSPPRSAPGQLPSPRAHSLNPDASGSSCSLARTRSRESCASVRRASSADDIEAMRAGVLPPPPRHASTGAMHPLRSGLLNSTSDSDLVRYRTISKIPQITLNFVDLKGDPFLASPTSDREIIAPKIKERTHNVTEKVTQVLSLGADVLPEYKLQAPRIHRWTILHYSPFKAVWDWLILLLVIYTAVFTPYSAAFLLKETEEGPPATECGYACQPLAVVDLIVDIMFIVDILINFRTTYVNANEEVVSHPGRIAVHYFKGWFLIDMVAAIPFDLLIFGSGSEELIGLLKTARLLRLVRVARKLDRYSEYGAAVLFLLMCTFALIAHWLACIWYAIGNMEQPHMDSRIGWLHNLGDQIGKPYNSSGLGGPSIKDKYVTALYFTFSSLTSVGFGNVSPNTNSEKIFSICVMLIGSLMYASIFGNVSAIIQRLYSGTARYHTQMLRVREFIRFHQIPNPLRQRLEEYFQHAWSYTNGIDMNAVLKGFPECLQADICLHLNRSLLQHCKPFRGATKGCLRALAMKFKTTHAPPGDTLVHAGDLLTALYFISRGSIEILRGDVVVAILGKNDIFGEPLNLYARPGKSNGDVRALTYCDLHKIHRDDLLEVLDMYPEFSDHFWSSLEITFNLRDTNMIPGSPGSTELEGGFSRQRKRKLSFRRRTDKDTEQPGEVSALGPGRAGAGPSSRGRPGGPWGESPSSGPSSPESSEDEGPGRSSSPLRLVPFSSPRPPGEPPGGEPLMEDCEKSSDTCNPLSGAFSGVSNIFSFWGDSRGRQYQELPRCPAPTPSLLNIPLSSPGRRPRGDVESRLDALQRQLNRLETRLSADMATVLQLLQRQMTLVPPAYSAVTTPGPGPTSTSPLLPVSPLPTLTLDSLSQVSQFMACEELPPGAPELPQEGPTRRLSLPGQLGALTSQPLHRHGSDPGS
Take `Cc1csc(CN(C)C(=O)CC2C(=O)NCCN2Cc2ccc(-c3ccccc3)cc2)n1` (stereo not shown): the “hERG current change (%, negative = inhibition) at 10uM” value amounted to 1.02%.
For `CCC1CCCCN1S(=O)(=O)c1ccc(C(=O)Nc2nnc(C3CC3)o2)cc1` (stereo not shown), the “hERG current change (%, negative = inhibition) at 10uM” value was determined as 2.52%.
As for `Nc1ccc(-c2c3ccc(=O)cc-3oc3cc(O)ccc23)c(C(=O)O)c1`, the figure is 7.03%.
The result for `C=CCn1cc(Cl)cc(C(=O)Nc2ccccc2)c1=O` reads -7.56%.
The result for `Cc1nc2nc[nH]n2c(=O)c1NS(=O)(=O)c1ccc([N+](=O)[O-])cc1` reads 19.5%.
`Cc1c(NS(=O)(=O)c2ccc(C(=O)NCc3ccc(F)cc3)cc2)c(=O)n(-c2ccccc2)n1C`: the “hERG current change (%, negative = inhibition) at 10uM” value is listed as -15%.
As for `Cc1ccc(C2OC(=O)C=C2c2ccccc2)cc1` (stereo not shown), the figure is 3.71%.
As for `N#CC(C#N)=C(N)/C(C#N)=C/c1cc(O)c(O)c(O)c1`, the figure is 15.9%; as for `O=C1CCCCCN1CP(=O)(O)CCc1ccccc1`, 3.98%; as for `CS(=O)(=O)N1CCN(c2ccc(NC(=O)C(c3ccccc3)c3ccccc3)cc2)CC1`, -2.88%.
The result for `CCOc1ccccc1/C=N/n1c(C)nc2ccccc2c1=O` reads 3.63%; that for `COc1ccc(-c2c(-c3cc(OC)cc(OC)c3)n(C)c3ccc(-c4ccc(OC)cc4F)cc23)cc1`, 12.3%.
Consider `COCCC1CCCCN1C(=O)c1cccc(OC2CCN(S(C)(=O)=O)CC2)c1` (stereo not shown), for which the “hERG current change (%, negative = inhibition) at 10uM” value is recorded as 5.55%.
The result for `Cc1[nH]ncc1N=Cc1ccc([N+](=O)[O-])cc1` reads 12.5%.
The result for `COC(CC(=O)NNC(=S)Nc1ccc(Cl)cc1)OC` reads 23.5%; that for `Cc1ccc(C(c2c(O)nc3n(c2=O)CCS3)c2c(O)nc3n(c2=O)CCS3)cc1`, 19.8%.
The result for `COC(=O)CN(c1ccc(C(C)C)cc1)S(=O)(=O)c1c(C)[nH]c(=O)[nH]c1=O` reads 16.3%; that for `O=c1cc2n(c(=O)[nH]1)CCC1=C2CCCC1`, 12.3%; that for `CC(C(=O)Nc1ccc(N2CCOCC2)cc1)N1C(=O)c2ccccc2C1=O` (stereo not shown), -3.17%.
In the case of `Cc1noc(C)c1CSCC(=O)Nc1cc(Cl)ccc1N1CCCCC1`, the “hERG current change (%, negative = inhibition) at 10uM” value was 1.96%.
As for `CC(=O)N1CCOc2ccc(S(=O)(=O)Nc3ccc(C)cn3)cc21`, the figure is 10.6%; as for `CCC(C)NC(=O)C1CCCCN1S(=O)(=O)c1ccc(F)cc1` (stereo not shown), -5.25%.
With `CC1=CCP(=O)(c2ccccc2)C1` (stereo not shown), the “hERG current change (%, negative = inhibition) at 10uM” value is on record as -2.8%.
As for `O=C(CCCSc1ccccc1)Nc1cccc(CO)c1`, the figure is 8.93%; as for `CCCCC(C(=O)O)C(C)CC(=O)Nc1nccs1` (stereo not shown), 9.92%; as for `COc1ccc(CC(=O)NC(C)c2nnc(SCC(=O)Nc3nc(C)cs3)n2C)cc1` (stereo not shown), 0.589%.
For the compound `N#Cc1c(N)nc2c(c1-c1ccc3c(c1)OCO3)CCCCCC2`, the “hERG current change (%, negative = inhibition) at 10uM” value stood at 1.67%.
The result for `CN(NC(=S)Nc1ccc(OC(F)F)cc1)C(=S)Nc1ccc(OC(F)F)cc1` reads -27.6%; that for `Cc1ccc(CNC(=O)/C=C/c2ccc(Br)o2)cc1`, -26.2%; that for `CCOC(=O)c1ccccc1NC(=O)C=C(C)C`, 5.66%.
The result for `COCCn1c(SCC(=O)Nc2cc(C)on2)nnc1-c1ccco1` reads -4.67%; that for `O=C(NCCCn1ccnc1)c1ccc(Br)s1`, -9.08%; that for `COc1cc(OC)cc(C(=O)NCC(=O)OCC(=O)C(C)(C)C)c1`, 16.6%.
With `CC(Oc1cccc(Cl)c1)C(=O)Nc1cc(S(=O)(=O)N2CCOCC2)ccc1N1CCCCC1` (stereo not shown), the “hERG current change (%, negative = inhibition) at 10uM” value was 8.44%.
The result for `CCOC(=O)c1ccc(-n2c(CN3CCC(C(N)=O)CC3)nc3ccc([N+](=O)[O-])cc3c2=O)cc1` reads -27.3%; that for `CCOC(=O)c1c(C)oc2ccc(OC(=O)COc3c(F)c(F)c(F)c(F)c3F)cc12`, 16.5%; that for `CCN(CC(=O)NCc1ccc(Cl)cc1)CC(=O)Nc1ccc(C(N)=O)cc1`, 15.2%.
`Cn1c2ccccc2c2cnn(CC(=O)Nc3ccccc3Br)c(=O)c21`: the “hERG current change (%, negative = inhibition) at 10uM” value is 3.78%.
As for `N/C(=N\OC(=O)c1cccc2ccccc12)c1ccccn1`, the figure is -2.1%; as for `O=C(O)/C=C/C(=O)N1CCN(S(=O)(=O)c2cccc(C(F)(F)F)c2)CC1`, -36.9%; as for `COc1ccc(NC(=O)CSc2ncnc3c2sc2ccccc23)c(OC)c1`, 14.1%.
For `O=c1[nH]c2ccc(NS(=O)(=O)c3ccc(Cl)cc3)cc2[nH]1`, the “hERG current change (%, negative = inhibition) at 10uM” value was determined as 15.8%.
Regarding `CCN1CCN(C(=O)Cn2ncc3c([nH]c4ccc(C)cc43)c2=O)CC1`, the “hERG current change (%, negative = inhibition) at 10uM” value is given as -2.07%.
The result for `CSC(=Nc1ccccc1)C(C#N)c1nc2ccccc2[nH]1` (stereo not shown) reads 11.6%; that for `C#CCN(CC=C)C(=O)C1CCC(=O)N(CCCc2ccccc2)C1` (stereo not shown), 3.39%.
In the case of `CC(=O)OC(C)C[N+](C)(C)C.[Cl-]` (stereo not shown), the “hERG current change (%, negative = inhibition) at 10uM” value is 4.31%.
The result for `Cc1ccc(OCC(=O)NNC(=S)NCc2ccccc2)cc1` reads 18.2%; that for `COc1ccccc1NC(=O)CSc1ncn(-c2ccccc2)n1`, -41.1%.
As for `COCCSc1ccccc1C(=O)Nc1ccc([N+](=O)[O-])cc1OC`, the figure is -39.9%.
As for `CN(C)S(=O)(=O)Oc1cccc(C(=O)Nc2ccc(Cl)c(Cl)c2)c1`, the figure is -7.49%.
Regarding `Cc1c(-c2ccccc2)[n+](=O)c(-c2ccc(Cl)cc2)c(C)n1[O-]`, the “hERG current change (%, negative = inhibition) at 10uM” value was 21.2%.
As for `Cc1nc2ccccn2c1C(=O)CSc1ccc(Cl)cc1Cl`, the figure is -4.24%.
For the compound `Cc1sc2nc(C(C)Sc3n[nH]c(N)n3)[nH]c(=O)c2c1C` (stereo not shown), the “hERG current change (%, negative = inhibition) at 10uM” value came to 6.77%.
As for `CC1CCN(CC(=O)c2cccc(C(F)(F)F)c2)CC1.O=C(O)C(=O)O`, the figure is 7.63%; as for `COc1ccc(S(=O)(=O)N2CCCC2CNC(=O)C(=O)NCc2ccccc2Cl)cc1` (stereo not shown), -22.3%; as for `COCCNC(=S)N/N=C/c1ccc2c(c1)OCCO2`, -17.4%.
As for `CCCN1CCN(C(=O)c2cc(COc3ccc(F)c(F)c3)on2)CC1`, the figure is -44.8%.
The result for `O=C(CNc1ccc(F)cc1)N/N=C/c1c(O)ccc2ccccc12` reads 12.8%.
As to `Cc1ccccc1-c1nc(CS(=O)(=O)CC(=O)NCc2ccccc2)c(C)o1`, the “hERG current change (%, negative = inhibition) at 10uM” value is recorded as -4.06%.
As for `C=CCn1c(N)cc(=O)nc1SC(C)C(=O)Nc1ccc(C(=O)OCC)cc1` (stereo not shown), the figure is 6.4%; as for `O=C(Nc1cccc(Cl)c1)c1ccc(NCC2CCCO2)c([N+](=O)[O-])c1` (stereo not shown), -2.53%.
The result for `O=C(Cn1nc(Cc2cccnc2)c2ccccc2c1=O)Nc1cccnc1Cl` reads 3.37%; that for `CCC(=O)Nc1cccc(-c2cc3ccccc3oc2=O)c1`, -28.2%.
For `COc1ccc(-c2cc(C(F)(F)F)nc(SCC(=O)NCCN3CCOCC3)n2)cc1OC`, the “hERG current change (%, negative = inhibition) at 10uM” value is given as -5.84%.
As for `O=c1cc([O-])nc(SCc2ccccc2)n1-c1ccc(Cl)cc1.[K+]`, the figure is 19.9%.
As for `COc1ccc(-n2ncc3c2CC(C)(C)CC3NC(=O)C2=CC(=O)CC(C)(C)O2)cc1` (stereo not shown), the figure is -68.3%.
As for `[2H]C(CCOS(N)(=O)=O)c1ccc(C(C)(C)C)cc1` (stereo not shown), the figure is 3.54%; as for `CCc1ccc(NC(=O)CSc2nc3ccsc3c(=O)n2CCC(=O)O)cc1`, 17.6%; as for `Cc1cccc(-n2ccnc2CN2CCC(CO)(Cc3ccccc3)CC2)c1`, -50.1%.
Take `O=C(NCc1ccccc1Cl)NC(=O)c1csc([N+](=O)[O-])c1`: the “hERG current change (%, negative = inhibition) at 10uM” value is -8.11%.
As for `CCCCNC(=S)N1CCN(c2ccc(C(C)=O)cc2)CC1`, the figure is -40.6%; as for `Cc1cccc(-n2cc(CNCCN3CCOC3=O)c(-c3cccc(F)c3)n2)c1`, -16.4%; as for `Nc1c(N(Cc2ccco2)C(=O)c2ccc(Cl)cc2)c(=O)[nH]c(=O)n1Cc1ccccc1`, 11.5%.
The result for `c1ccc(-c2noc(CN3CCc4sccc4C3)n2)cc1` reads 11%; that for `CCCNc1c(NS(=O)(=O)c2ccc(OC)c(OC)c2)c(=O)oc2ccccc12`, -74.1%; that for `COC(=O)c1ccc(CSc2nc3sc4c(c3c(=O)n2C)CCCC4)o1`, 17.4%.
As for `O=C(NCC1CCCO1)C1CCC(=O)N1Cc1ccccc1Cl` (stereo not shown), the figure is 10.8%; as for `CCN(CC(=O)Nc1c(F)cccc1F)C(=O)c1ccc(S(=O)(=O)NCc2ccco2)cc1`, 8.72%; as for `CN(C)C(=O)C1OC(C)(C)OC1C(=O)N(C)C` (stereo not shown), 13.5%.
For `CCS(=O)(=O)c1nc(S(=O)(=O)c2ccc(C)cc2)c(N2CCCC2)s1`, the “hERG current change (%, negative = inhibition) at 10uM” value is 12.1%.
The result for `Nc1c(N(Cc2ccco2)C(=O)COc2ccccc2)c(=O)[nH]c(=O)n1Cc1ccccc1` reads 12.8%.
In the case of `O=C(COc1ncnc2ccccc12)Nc1cccc(S(=O)(=O)N2CCOCC2)c1`, the “hERG current change (%, negative = inhibition) at 10uM” value is recorded as -0.51%.
As for `Cc1ccc(/C=C/C(=O)N2CCc3ccccc3C2)cc1`, the figure is -6.8%; as for `COCCn1c(C)cc(C(=O)CSc2n[nH]c(N)n2)c1C`, 21.4%.
As for `CC1CCC2(CC1)NC(=O)N(Cc1nc(-c3ccccc3)no1)C2=O` (stereo not shown), the figure is -3.34%.
The result for `CCOC(=O)Cc1csc(SCc2nc3sc4c(c3c(=O)[nH]2)CCC4)n1` reads -0.59%; that for `CCCCNC(=O)Nc1cc(C)on1`, -7.32%.
As to `CCN(Cc1ccccc1)C(=O)c1c(-c2ccccc2Cl)noc1C`, the “hERG current change (%, negative = inhibition) at 10uM” value was -9.34%.
